# Assay results reported in the supplement of paper PMC8183993.
# Where a name gives a salt, the structure may show the parent alone. ± gives the standard deviation of the averaged measurements. The full ranking holds about 3,200 compounds; the median of “nuclei count (viability) relative to DMSO” is about 99, and the lowest 2% start at about 16. The list shows a part of the results.
# Tested on: U2OS
# Assay: nuclei count (viability) relative to DMSO (% of DMSO); higher = more viable cells
# Details: 10 µM; 24 h
# Procedure: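 Primary image-based screen in U2OS cells: compounds at 10 uM for 24 h, then a 1 h o-propargyl-puromycin (OPP) pulse, click labelling, and high-throughput microscopy. Mean cytoplasmic OPP intensity and nuclei count were normalised to DMSO wells within each plate (DMSO = 100) and averaged over triplicate plates.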
row,SMILES,nuclei count
1,O=C(O)CCCc1ccc(N(CCCl)CCCl)cc1 [Chlorambucil],80.5
2,O=Cc1cn(Cc2ccc(Cl)cc2)c2ccccc12 [Oncrasin 1],88.2
3,CN(C)Cc1c[nH]c2ccccc12 [Gramine],100
4,COc1cc2c(cc1O)C(CCc1ccc(Cl)cc1)N(C)CC2 (centres undefined),104
5,Nc1ccncc1 [4-Aminopyridine],92.4 ± 6.5
6,COc1ccc(-n2nc(C(F)(F)F)cc2-c2ccc(Cl)cc2)cc1,101
7,C[N+]1(C)CCOC(O)(c2ccc(-c3ccc(C4(O)C[N+](C)(C)CCO4)cc3)cc2)C1 (centres undefined) [Hemicholinium bromide],98.8
8,C[C@]12CCC(=O)C=C1CC[C@@H]1[C@@H]2C(=O)C[C@]2(C)C(=O)CC[C@@H]12 [Adrenosterone],103
9,O=P(O)(O)Cc1ccccc1 [Benzylphosphonic acid],106
10,CC(=O)N[C@H]1[C@@H](O[C@@H]2O[C@H](CC(O)[C@H]3O[C@@H](n4ccc(=O)[nH]c4=O)[C@H](O)[C@@H]3O)[C@H](O)[C@H](O)[C@H]2NC(=O)/C=C/CC(C)C)O[C@H](CO)[C@@H](N)[C@@H]1O (some centres undefined) [Tunicamycin],28.5
11,CC(C)[C@@]1(O)[C@@H](OC(=O)c2ccc[nH]2)[C@@]2(O)[C@@]3(C)C[C@]4(O)O[C@@]5([C@H](O)[C@@H](C)CC[C@]35O)[C@@]2(O)[C@@]14C [Ryanodine],100
12,COc1ccc(CNC(=O)/C=C/c2ccc3[nH]cc(CCN(C)C)c3c2)cc1,104
13,C[CH2][Hg][S]c1ccccc1C(=O)[O-].[Na+] [Thimerosal],5.97
14,C[N+](C)(C)CC#CCN1CCCC1=O [Oxotremorine M],87.3
15,CC(=O)C1=C(O)[C@@H]2[C@H]3c4c[nH]c5cccc(c45)C[C@H]3C(C)(C)N2C1=O [Cyclopiazonic Acid],90.3
16,CC(=O)C1=C(O)[C@@H]2[C@H]3c4c[nH]c5cccc(c45)C[C@H]3C(C)(C)N2C1=O [Cyclopiazonic acid],75.5
17,CC(C)[C@@]1(NC(=O)[C@@H]2C[C@@H]3c4cccc5[nH]cc(c45)C[C@H]3N(C)C2)O[C@@]2(O)[C@@H]3CCCN3C(=O)[C@H](Cc3ccccc3)N2C1=O [Dihydroergocristine mesylate],102
18,CN1CCC(c2c[nH]c3ccc(O)cc23)CC1,105
19,CC(N)Cc1c[nH]c2ccc(OCc3cccs3)cc12 (centres undefined) [BW 723C86 hydrochloride],97.9
20,C1=C2CCCN[C@H]2[C@@H]2C[C@H]1[C@H]1CCCCN1C2 [Aloperine],101
21,CCN[C@@H](C)Cc1cccc(C(F)(F)F)c1 [Dexfenfluramine hydrochloride],104
22,Cn1cnc(CCN)c1 [N _-Methylhistamine dihydrochloride],99.4
23,C1CCc2nnnn2CC1 [Pentylenetetrazole],97.5 ± 8.5
24,C=C1[C@@H]2CC[C@H]3[C@]4(C)C[C@H](O[C@@H]5O[C@H](CO)[C@@H](OS(=O)(=O)O)[C@H](OS(=O)(=O)O)[C@H]5OC(=O)CC(C)C)C[C@@H](C(=O)O)[C@H]4CC[C@]3(C2)[C@@H]1O [Atractyloside potassium salt],104
25,CC(Cc1ccc(O)cc1)NCC(O)c1cc(O)cc(O)c1 (centres undefined) [Fenoterol hydrobromide],92.9

row,SMILES,nuclei count
1,C/C(=C\c1csc(C)n1)[C@@H]1C[C@@H]2O[C@]2(C)CCC[C@H](C)[C@H](O)[C@@H](C)C(=O)C(C)(C)[C@@H](O)CC(=O)O1 [Epothilone B (EPO906)],46.5
2,C=CC[C@]1(O)CC[C@H]2[C@@H]3CCC4=CC(=O)CCC4=C3C=C[C@@]21C [Altrenogest],96.3
3,CN1C(=O)[C@]23CC4=CC=C[C@H](O)[C@H]4N2C(=O)[C@@]1(CO)SS3 [Gliotoxin],36
4,C[C@]12CC[C@@H](O)C[C@@H]1CC[C@@H]1[C@@H]2CC[C@]2(C)C(=O)CC[C@@H]12 [Androsterone],98.3
5,"CNCC(O)c1ccc(O)cc1 (racemic) [(+,-)-Synephrine]",102
6,C=C[C@H]1CN2CC[C@H]1C[C@H]2[C@H](O)c1ccnc2ccccc12 [Cinchonidine],103
7,Cc1cccc(C(C)c2c[nH]cn2)c1C (centres undefined) [Medetomidine hydrochloride],88.9
8,Cc1cccc(C(C)c2c[nH]cn2)c1C (centres undefined) [Medetomidine HCl],105
9,COc1ccc2c(c1)[C@]13CCCC[C@@H]1[C@H](C2)N(C)CC3 [Dextromethorphan hydrobromide monohydrate],107
10,Clc1cnc(Oc2ccc(Oc3ncc(Cl)cc3Cl)cc2)c(Cl)c1,102
11,COC[C@H]1OC(=O)c2coc3c2[C@@]1(C)C1=C(C3=O)[C@@H]2CCC(=O)[C@@]2(C)C[C@H]1OC(C)=O [Wortmannin],95.8 ± 5.6
12,"CN(C(=O)Cc1ccc(Cl)c(Cl)c1)[C@H](CN1CCCC1)c1ccccc1 [ICI-199,441 hydrochloride]",100
13,CC(=O)N(C)c1cccc(-c2ccnc3c(C(=O)c4cccs4)cnn23)c1 [Indiplon],105
14,CC1(C)CC(O)CC(C)(C)N1[O] [Tempol (4-Hydroxy-TEMPO)],98.6
15,CC1(C)CC(O)CC(C)(C)N1[O],99.9
16,C[C@H](Cc1ccc(OCC(=O)O)cc1)NC[C@H](O)c1cccc(Cl)c1,103
17,N[C@@H](Cn1oc(=O)[nH]c1=O)C(=O)O [L-Quisqualic acid],99.1
18,CN1[C@@H]2CC(O)C[C@H]1[C@@H]1O[C@@H]12 (some centres undefined) [Scopine],105
19,S=C(NC1CCCCC1)N1CCC(c2cnc[nH]2)CC1 [Thioperamide],75.5
20,S=C(NC1CCCCC1)N1CCC(c2cnc[nH]2)CC1 [Thioperamide maleate],108
21,C#C[C@]1(O)CC[C@H]2[C@@H]3CCC4=CC(=O)CC[C@]4(C)[C@H]3CC[C@@]21C [Ethisterone],99.3 ± 2.2
22,CC(C)[N+](C)(CCC(C(N)=O)(c1ccccc1)c1ccccc1)C(C)C [Isopropamide iodide],104
23,O=C([O-])c1ccccc1-c1c2cc(Br)c(=O)cc-2oc2[c]([Hg+])c([O-])c(Br)cc12.[Na+].[Na+].[OH-] [Merbromin],105
24,CC(=O)O[C@@]12CO[C@@H]1C[C@@H](O)[C@@]1(C)C(=O)[C@H](O)C3=C(C)[C@@H](O)C[C@@](O)([C@@H](OC(=O)c4ccccc4)[C@H]21)C3(C)C [10-DAB (10-Deacetylbaccatin)],100
25,O=c1[nH]c2ccccc2n1CCCN1CCC(n2c(=O)[nH]c3cc(Cl)ccc32)CC1 [Domperidone],100 ± 6

row,SMILES,nuclei count
1,CC(C)CC(N(C)C)C1(c2ccc(Cl)cc2)CCC1 (centres undefined) [Sibutramine HCl],98
2,C=CCN1CC[C@]23c4c5ccc(O)c4O[C@H]2/C(=N/NC(=O)c2ccccc2)CC[C@@]3(O)[C@H]1C5 [Naloxone benzoylhydrazone],104
3,c1cc2c(cc1[C@H]1OC[C@H]3[C@@H]1CO[C@@H]3c1ccc3c(c1)OCO3)OCO2 [Sesamin (Fagarol)],87.7
4,CC(C)C(C(=O)OC(C#N)c1cccc(Oc2ccccc2)c1)c1ccc(Cl)cc1 (centres undefined) [Fenvalerate],99.7
5,COc1ccc(CN2CCNCC2)c(OC)c1OC [Trimetazidine dihydrochloride],113
6,COc1ccc2c(c1)c(CCN1CCOCC1)c(C)n2C(=O)c1cccc(Cl)c1Cl,107
7,C[C@]12CC[C@H]3[C@@H](CCC4=CC(=O)CC[C@@H]43)[C@@H]1CC[C@@H]2O [Nandrolone],105
8,N#Cc1ccc(N2CCN(C(=O)COc3ccc4[nH]cc(CCN)c4c3)CC2)cc1 [Donitriptan hydrochloride],90
9,O=C(N[C@H]1CN2CCC1CC2)c1ccc(Cl)cc1,94.6
10,CN1Cc2ccccc2[C@@H]2c3cccc4[nH]cc(c34)C[C@H]21,51
11,c1ccc(CCCCN2CCC(c3ccccc3)CC2)cc1 [4-PPBP maleate],109
12,C[C@H](N)Cc1cnc[nH]1 [(S)-(+)-a-Methylhistamine dihydrobromide],102
13,C=C(C)[C@H]1CN[C@H](C(=O)O)[C@H]1CC(=O)O [Kainic acid],90.9
14,CN(C)CCN(C)CCc1ccc(Cl)c(Cl)c1 [BD 1047 dihydrobromide],113
15,CN1[C@@H]2CC[C@H]1C[C@@H](OC(=O)[C@H](CO)c1ccccc1)C2 [Hyoscyamine (Daturine)],108
16,CN1[C@@H]2CC[C@H]1C[C@@H](OC(=O)[C@H](CO)c1ccccc1)C2 [Hyoscyamine (L)],90.8
17,C[C@H]([C@H](O)CCC(C)(C)O)[C@H]1CC[C@@]2(O)C3=CC(=O)[C@@H]4C[C@@H](O)[C@@H](O)C[C@]4(C)[C@H]3CC[C@]12C [Ecdysone],104
18,O=C(O)Cc1cccnc1C(=O)O [Homoquinolinic acid],96.7
19,CN[C@@H]1C[C@@H](c2ccc(Cl)c(Cl)c2)c2ccccc21 [Indatraline hydrochloride],87.5 ± 20
20,O=[N+]([O-])c1cc(O)c(O)c([N+](=O)[O-])c1,107
21,Clc1ccc(C2=CCCC3CCC2N3)cn1 (centres undefined) [UB 165 fumarate],103
22,CC1=CC(=O)c2c(O)cccc2C1=O [Plumbagin],17.8
23,O=[N+]([O-])O[C@@H]1CO[C@H]2[C@@H]1OC[C@@H]2O [Isosorbide mononitrate],108
24,CCCCCCC[n+]1ccc(-c2cc[n+](CCCCCCC)cc2)cc1 [DHBP dibromide],99.4
